# Assay results taken from the supplement of paper PMC8728848.
# Some of the results follow.
# Tests used:
# Assay in all cases: glycan array binding signal (z-score within array); higher = stronger binding
# Details in all cases: glycan notation: IUPAC condensed, linker removed
# [1] = biological target: Gal(b1-3)[Fuc(a1-4)]GlcNAc(b1-3)Gal(b1-4)[Fuc(a1-3)]GlcNAc
# How it was run: (§1)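 Columns mapping to the same glycan were averaged after glycan names were converted to IUPAC-condensed notation. The data come from 3228 arrays in the Consortium for Functional Glycomics database, limited to those with an available protein sequence. Binding is reported as a within-array Z-score averaged across arrays of one protein sequence and across linkers.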
# [2] = biological target: Gal(b1-3)[GlcNAc(b1-6)]GalNAc
# How it was run: as §1
# [3] = biological target: Gal(b1-3)[Neu5Ac(a2-6)]GalNAc
# How it was run: as §1
# [4] = biological target: Gal(b1-3)[Neu5Ac(a2-6)]GlcNAc(b1-6)Gal(b1-4)Glc
# How it was run: as §1
# [5] = biological target: Gal(b1-3)[Neu5Ac(b2-6)]GalNAc
# How it was run: as §1
# [6] = biological target: Gal(b1-4)GalNAc(a1-3)[Fuc(a1-2)]Gal(b1-4)GlcNAc
# How it was run: as §1
# [7] = biological target: Gal(b1-4)GalNAc(b1-3)[Fuc(a1-2)]Gal(b1-4)GlcNAc
# How it was run: as §1
# Gal(b1-4)Glc = biological target: Gal(b1-4)Glc
# How it was run: as §1
# Gal(b1-4)Glc6S = biological target: Gal(b1-4)Glc6S
# How it was run: as §1
# Gal(b1-4)GlcNAc = biological target: Gal(b1-4)GlcNAc
# How it was run: as §1
# [8] = biological target: Gal(b1-4)GlcNAc(a1-6)Gal(b1-4)GlcNAc
# How it was run: as §1
# [9] = biological target: Gal(b1-4)GlcNAc(b1-2)Man(a1-3)[Gal(b1-4)GlcNAc(b1-2)Man(a1-6)]Man(b1-4)GlcNAc(b1-4)GlcNAc
# How it was run: as §1
# [10] = biological target: Gal(b1-4)GlcNAc(b1-3)Gal(b1-3)GlcNAc
# How it was run: as §1
# [11] = biological target: Gal(b1-4)GlcNAc(b1-3)Gal(b1-4)Glc
# How it was run: as §1
# [12] = biological target: Gal(b1-4)GlcNAc(b1-3)Gal(b1-4)GlcNAc
# How it was run: as §1
# [13] = biological target: Gal(b1-4)GlcNAc(b1-3)Gal(b1-4)GlcNAc(b1-3)Gal(b1-4)GlcNAc
# How it was run: as §1
# [14] = biological target: Gal(b1-4)GlcNAc(b1-3)Gal(b1-4)[Fuc(a1-3)]GlcNAc(b1-3)Gal(b1-4)[Fuc(a1-3)]GlcNAc
# How it was run: as §1
# [15] = biological target: Gal(b1-4)GlcNAc(b1-3)GalNAc
# How it was run: as §1
# [16] = biological target: Gal(b1-4)GlcNAc(b1-3)[Gal(b1-4)GlcNAc(b1-6)]Gal(b1-4)GlcNAc
# How it was run: as §1
# [17] = biological target: Gal(b1-4)GlcNAc(b1-3)[GlcNAc(b1-6)]Gal(b1-4)GlcNAc
# How it was run: as §1
# [18] = biological target: Gal(b1-4)GlcNAc(b1-6)Gal(b1-4)GlcNAc
# How it was run: as §1
# [19] = biological target: Gal(b1-4)GlcNAc(b1-6)Gal(b1-4)GlcNAc(b1-6)GalNAc
# How it was run: as §1
# [20] = biological target: Gal(b1-4)GlcNAc(b1-6)GalNAc
# How it was run: as §1
# [21] = biological target: Gal(b1-4)GlcNAc(b1-6)[Gal(b1-3)]GalNAc
# How it was run: as §1
# Gal3S(b1-3)GalNAc = biological target: Gal3S(b1-3)GalNAc
# How it was run: as §1
# Gal3S(b1-3)GlcNAc = biological target: Gal3S(b1-3)GlcNAc
# How it was run: as §1
# [22] = biological target: Gal3S(b1-3)[Fuc(a1-4)]GlcNAc
# How it was run: as §1
# Gal3S(b1-4)Glc = biological target: Gal3S(b1-4)Glc
# How it was run: as §1
# Gal3S(b1-4)Glc6S = biological target: Gal3S(b1-4)Glc6S
# How it was run: as §1
# Gal3S(b1-4)GlcNAc = biological target: Gal3S(b1-4)GlcNAc
# How it was run: as §1
# Gal3S(b1-4)GlcNAc6S = biological target: Gal3S(b1-4)GlcNAc6S
# How it was run: as §1
# [23] = biological target: Gal3S(b1-4)[Fuc(a1-3)]Glc
# How it was run: as §1
# Gal3S4S(b1-4)GlcNAc = biological target: Gal3S4S(b1-4)GlcNAc
# How it was run: as §1
# Gal3S6S(b1-4)GlcNAc = biological target: Gal3S6S(b1-4)GlcNAc
# How it was run: as §1
# Gal3S6S(b1-4)GlcNAc6S = biological target: Gal3S6S(b1-4)GlcNAc6S
# How it was run: as §1
# Gal4S(b1-4)GlcNAc = biological target: Gal4S(b1-4)GlcNAc
# How it was run: as §1
# Gal4S6S(b1-4)GlcNAc = biological target: Gal4S6S(b1-4)GlcNAc
# How it was run: as §1
binder,measurement,setting,value
"R410P1E11 (Tachypleus tridentatus), TAL2_TACTR (protein) MEKGTPPTHDSDNWMGRAKEIGNGGWDQFQFLFFDPNGYLYAVSNDKLYKASPPQSDTDNWIARATEIGSGGWSGFKFLFFHPNGYLYAVRGQRFYKALPPVSNQD",glycan array binding signal (z-score),[1],1.49
same,glycan array binding signal (z-score),[2],-0.039
same,glycan array binding signal (z-score),[3],-0.538
same,glycan array binding signal (z-score),[4],-0.021
same,glycan array binding signal (z-score),[5],-0.346
same,glycan array binding signal (z-score),[6],-0.1
same,glycan array binding signal (z-score),[7],0.323
same,glycan array binding signal (z-score),Gal(b1-4)Glc,-0.21
same,glycan array binding signal (z-score),Gal(b1-4)Glc6S,-0.407
same,glycan array binding signal (z-score),Gal(b1-4)GlcNAc,0.008
same,glycan array binding signal (z-score),[8],-0.52
same,glycan array binding signal (z-score),[9],-0.14
same,glycan array binding signal (z-score),[10],-0.341
same,glycan array binding signal (z-score),[11],0.015
same,glycan array binding signal (z-score),[12],-0.111
same,glycan array binding signal (z-score),[13],-0.368
same,glycan array binding signal (z-score),[14],-0.411
same,glycan array binding signal (z-score),[15],1.05
same,glycan array binding signal (z-score),[16],-0.144
same,glycan array binding signal (z-score),[17],-0.293
same,glycan array binding signal (z-score),[18],-0.267
same,glycan array binding signal (z-score),[19],-0.2
same,glycan array binding signal (z-score),[20],0.235
same,glycan array binding signal (z-score),[21],0.985
same,glycan array binding signal (z-score),Gal3S(b1-3)GalNAc,-0.557
same,glycan array binding signal (z-score),Gal3S(b1-3)GlcNAc,-0.424
same,glycan array binding signal (z-score),[22],-0.521
same,glycan array binding signal (z-score),Gal3S(b1-4)Glc,-0.418
same,glycan array binding signal (z-score),Gal3S(b1-4)Glc6S,-0.509
same,glycan array binding signal (z-score),Gal3S(b1-4)GlcNAc,-0.395
same,glycan array binding signal (z-score),Gal3S(b1-4)GlcNAc6S,-0.076
same,glycan array binding signal (z-score),[23],-0.288
same,glycan array binding signal (z-score),Gal3S4S(b1-4)GlcNAc,-0.473
same,glycan array binding signal (z-score),Gal3S6S(b1-4)GlcNAc,0.352
same,glycan array binding signal (z-score),Gal3S6S(b1-4)GlcNAc6S,0.451
same,glycan array binding signal (z-score),Gal4S(b1-4)GlcNAc,-0.54
same,glycan array binding signal (z-score),Gal4S6S(b1-4)GlcNAc,-0.484
